Measurements: publication PMC4336329 (PLoS ONE, 2015)
In all, about 310,000 compounds went through this assay and about 2,200 (0.71%) showed an effect of 50% or more. The effect is printed as a negative number. The list shows a part of the results.

These compounds were tested against human ether-à-go-go-related gene (hERG) potassium channel (human, UniProt Q12809) (assay: primary screen, population patch clamp on CHO cells stably expressing hERG).
Sequence of human ether-à-go-go-related gene (hERG) potassium channel (Q12809 whole entry, looked up): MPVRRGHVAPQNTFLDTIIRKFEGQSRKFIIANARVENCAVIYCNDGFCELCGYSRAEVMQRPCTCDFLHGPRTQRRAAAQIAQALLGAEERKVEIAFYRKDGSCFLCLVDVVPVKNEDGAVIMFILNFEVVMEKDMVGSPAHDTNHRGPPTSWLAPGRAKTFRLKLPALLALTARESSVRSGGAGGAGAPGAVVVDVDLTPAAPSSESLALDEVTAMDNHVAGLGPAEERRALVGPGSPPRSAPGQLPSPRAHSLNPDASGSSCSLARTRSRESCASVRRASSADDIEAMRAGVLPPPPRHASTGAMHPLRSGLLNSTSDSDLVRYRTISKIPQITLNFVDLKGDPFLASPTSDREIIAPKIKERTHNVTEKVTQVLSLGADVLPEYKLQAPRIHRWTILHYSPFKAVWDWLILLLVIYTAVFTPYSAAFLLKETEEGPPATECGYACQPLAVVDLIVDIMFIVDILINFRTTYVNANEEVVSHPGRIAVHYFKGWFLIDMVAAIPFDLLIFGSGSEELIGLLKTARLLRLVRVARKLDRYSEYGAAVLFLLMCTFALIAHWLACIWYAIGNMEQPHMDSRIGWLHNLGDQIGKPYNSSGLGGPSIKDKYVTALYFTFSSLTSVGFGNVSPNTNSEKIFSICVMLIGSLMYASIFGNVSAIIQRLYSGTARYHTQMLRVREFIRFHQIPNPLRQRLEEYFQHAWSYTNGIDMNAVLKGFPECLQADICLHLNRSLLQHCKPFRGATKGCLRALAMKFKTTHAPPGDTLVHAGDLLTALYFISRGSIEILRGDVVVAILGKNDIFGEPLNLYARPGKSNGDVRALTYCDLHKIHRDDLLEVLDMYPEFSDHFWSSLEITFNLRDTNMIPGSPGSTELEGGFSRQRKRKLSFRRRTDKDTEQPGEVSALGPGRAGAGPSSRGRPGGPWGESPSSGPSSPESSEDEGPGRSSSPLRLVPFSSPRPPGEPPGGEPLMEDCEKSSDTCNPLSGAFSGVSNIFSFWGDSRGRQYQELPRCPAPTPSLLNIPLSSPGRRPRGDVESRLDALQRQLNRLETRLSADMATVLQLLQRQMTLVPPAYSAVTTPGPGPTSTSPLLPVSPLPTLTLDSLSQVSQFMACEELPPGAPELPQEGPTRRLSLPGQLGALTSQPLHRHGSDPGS

| SMILES | hERG current change (%, negative = inhibition) at 1uM [%] |
| --- | --- |
| Cc1ccsc1C1Nc2ccc3ncccc3c2C2=C1C(=O)CCC2 (stereo not shown) | 0.626 |
| COc1ccc(CNCC(O)(c2ccccc2)c2ccc(F)cc2)cc1OC (stereo not shown) | -8.9 |
| Cc1cc(C(=O)CSc2nnc(-c3ccc(Cl)cc3)n2CC2CCCO2)c(C)n1C (stereo not shown) | -2.88 |
| CCS(=O)(=O)CCSc1nc2c(cc1C#N)CCCC2 | 7.3 |
| COc1ccc(SCC2CN(C)CCC2c2ccc(F)cc2)cc1.Cl (stereo not shown) | 8.45 |
| O=C(NC1CCCC1)C(c1ccccc1)N(C(=O)c1csnn1)C1CCCC1 (stereo not shown) | -2.16 |
| Cc1cc(NC(=O)C(=O)NCCN2CCN(S(C)(=O)=O)CC2)ccc1Br | 5.62 |
| CSc1ccccc1C(=O)Nc1cccc(C(C)O)c1 (stereo not shown) | 4.97 |
| CN1CCN(S(=O)(=O)c2ccc(NC(=O)Nc3cccc(Cl)c3)cc2)CC1 | 12.7 |
| COc1ccccc1-c1nnc(SCC(=O)Nc2oc(C)c3c(C)n[nH]c(=O)c23)n1C | 20.9 |
| C#CCNC(=O)C1=C[C@@H](C2CC2)C[C@@H](OCCCCO)O1 | 12.6 |
| Oc1ccc(N2CCN(C(c3cccnc3)c3nnnn3Cc3ccccc3)CC2)cc1 (stereo not shown) | 1.43 |
| CCc1ccc(NC(=O)Cn2c(=O)n(CCCC(=O)NCc3ccco3)c(=O)c3ccccc32)cc1 | 4.77 |
| COc1ccccc1C(CNc1ccc(S(=O)(=O)N2CCCC2)cc1[N+](=O)[O-])N(C)C (stereo not shown) | 15.8 |
| Cc1cc2cc3c(cc2nc1SCC(=O)O)OCCO3 | 13.1 |
| c1ccc2sc(Sc3ncnc4sccc34)nc2c1 | 9.34 |
| CC1(C)CC(C(=O)NCCC(c2ccccc2)c2ccco2)CCO1 (stereo not shown) | 0.843 |
| Cl.N=c1sccn1CC(=O)Nc1ccc(S(=O)(=O)N2CCOCC2)cc1 | 12.3 |
| O=C(COc1cc(Cl)c(Cl)cc1Cl)Nc1ccncc1 | 3.58 |
| CN(C)c1cccc2c1c(NS(=O)(=O)c1cn(C)cn1)nn2C | 8.71 |
| CS(=O)(=O)N(C(=O)NC(=O)NC1CCS(=O)(=O)C1)C1CCCCC1 (stereo not shown) | 2.95 |
| O=C(c1ccco1)N1CCN=C1SCc1ccc(F)cc1 | 6.49 |
| Cn1ccnc1SCC(=O)Nc1ccc2c(c1)OCO2 | 11.5 |
| N#CCCn1cc(C(=O)Nc2ccc(F)cc2)c(-c2ccccc2)n1 | 11.7 |
| Cc1ccc(NC2=CC(=O)CC(c3ccccc3)C2)cc1 (stereo not shown) | 14 |
